Measured values taken from the supplement of paper PMC10126150.
Sequences with one replicate were seen in a single cluster, so their values are uncertain.

Test system: ATP
Assay: switch fluorescence ratio, 500 uM ATP over buffer (Cy3 cluster intensity, sum of 5 cycles each) (fold (ratio)); higher = stronger signal-on switching upon ATP binding; sequences stand for … in TCGTCGGCAGCGTCAGATGTGTATAAGAGACAGTTTTTTTTTTTTTTTTTTTTTTTTT…TC
Conditions: aptamer strand: ATP DNA aptamer (quencher-CACCTGGGGGAGTATTGCGGAGGAAGG + anchor), 100 nM annealed; ATP concentration: 500 uM; one replicate
How it was run: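 Values give the fluorescence ratio for each switch-domain sequence, averaged from per-cluster ratios of summed target-cycle to summed buffer-cycle Cy3 intensity. The Cy3-labelled switching-strand clusters sat on a modified Illumina MiSeq flow-cell, were annealed to 100 nM quencher-labelled ATP aptamer, and were imaged in selection buffer, then after 15 min with 500 uM ATP at 22 °C. Five cycles ran with NaOH stripping and re-annealing between them, and clusters outside 100-1000 RFU were excluded.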
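Further: ATP exposure 15 min at 22 °C before imaging.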

| Sequence | switch fluorescence ratio |
| --- | --- |
| GGATGGAATT | 0.974 |
| CGCTTGCTGA | 0.958 |
| GTAGAGCTGA | 0.981 |
| GTAGTCAGTC | 1.04 |
| TTAAGTTTGC | 0.97 |
| GTTACGAGGC | 1.14 |
| AAACTCTTGC | 1.52 |
| CTAGCGCGCG | 0.931 |
| TCGGATCCGT | 0.998 |
| AAGTCTTGAG | 0.993 |
| CCTCTGTAGA | 2.26 |
| CATATTATAC | 1.1 |
| GTTCGAGTAT | 1.05 |
| ATTCGTATAC | 2.15 |
| TAATATTTTG | 0.988 |
| TGGGTAACCC | 1.02 |
| AGGATTCCTC | 1.07 |
| TGTACTACAT | 1.08 |
| CAACCATAGT | 1.13 |
| TTCTGATAGT | 0.966 |
| TCCCAGTAG | 1.28 |
| CAGACTGGTC | 0.875 |
| TGACTTTTG | 0.92 |

| Sequence | switch fluorescence ratio |
| --- | --- |
| CGTAGGGCTT | 0.954 |
| TTCTGATTCC | 1.07 |
| AATTTCTCTC | 0.997 |
| ATATGAAACG | 0.993 |
| GTTTCATCG | 1.01 |
| GAATAACGCA | 1.14 |
| GGCTCAATGA | 1.01 |
| GTATGTAGGC | 0.983 |
| GAAGCCCTAT | 1.05 |
| TACTATAGAG | 1.05 |
| AAAATGACTC | 1.02 |
| CAATGAAGCG | 1.05 |
| TGAATGAATC | 0.955 |
| GATCGCTGA | 1.1 |
| CAAGAGAGTT | 0.999 |
| GCCAACTCCG | 3.79 |
| GGGCTCGATA | 1 |
| TGAGATCCGG | 1.03 |
| TCAGTCTTTG | 0.996 |
| GCTATAACTG | 1.04 |
| TGTTTTCTAT | 1.01 |
| CTGACTGAAT | 1.05 |
| TTTATGAAGT | 1.19 |

| Sequence | switch fluorescence ratio |
| --- | --- |
| ACGGAGCGCA | 2.67 |
| TAGGTTTTC | 0.998 |
| TAGGCTGAAC | 1.01 |
| GTGCCTGTTT | 1 |
| TGTTGACATG | 0.988 |
| CACAGCGCCA | 1.01 |
| CGCTGATTTT | 0.981 |
| TCGATCACTG | 1.02 |
| GAAGTTGGGC | 0.993 |
| TAAGGCCAAA | 1.21 |
| CCCAGATTCA | 1.05 |
| AACCACCATA | 1.05 |
| ATTAGTCCAA | 0.97 |
| TCTGGTCCAG | 1.04 |
| GTCATAATGC | 0.971 |
| GATACTAAAC | 1.14 |
| CCGTTACGTC | 1.06 |
| ATACTAAAAG | 1.03 |
| CATCCTTCGG | 1.05 |
| TTAGTCGTTT | 0.994 |
| AGCACGATGT | 1 |
| CAGAGAGGAT | 1.02 |
| TGGCTAAGCA | 1.01 |

| Sequence | switch fluorescence ratio |
| --- | --- |
| GCGAGCGCCA | 0.983 |
| GAAGTAGCTT | 0.983 |
| TGGGAGAACA | 0.991 |
| GCCACTTAAA | 0.996 |
| AGCTATAGGG | 1.01 |
| CCAACTAGA | 1.02 |
| CAGGGGATGA | 0.999 |
| AAGTGGCGGC | 0.993 |
| TGGGGAGGT | 0.988 |
| ATGCCGCGGG | 0.996 |
| ATGAATTAT | 1 |
| GTCTAGGGAA | 0.942 |
| AAATATTTTC | 0.96 |
| ATACGCTCCA | 1.03 |
| GCCCCAATCG | 1.03 |
| GATGTATTAC | 1.15 |
| GGTGCACATA | 0.991 |
| TAATTTTTAT | 0.964 |
| CGGGCCTGTA | 0.943 |
| ATCTCGGCTG | 0.993 |
| CCCAGGTTCC | 1.7 |
| GATCTTCGTC | 1.01 |
| TAGGTCCAAC | 0.992 |

| Sequence | switch fluorescence ratio |
| --- | --- |
| GCTTGTTTAG | 1.01 |
| GATGGTGCG | 0.965 |
| TAATAACGGA | 1.03 |
| ACTAGTACTA | 1.08 |
| TGCGACGGCT | 1.04 |
| TGGGAGGCTA | 0.977 |
| TACGATCAG | 0.973 |
| CGCATTATTT | 1.25 |
| GTTATGTTGG | 0.966 |
| GCTGGATTAT | 0.978 |
| ATCGCGGGTG | 1 |
| TTTGTACATA | 1.03 |
| CTAGCACTTC | 1.24 |
| GTAGTATGCC | 0.997 |
| AACGGGATTC | 1.01 |
| CAAATCCATG | 0.968 |
| AACGTGTTT | 1 |
| CTTTTAACAT | 1.04 |
| TGGTCAGCCA | 1.02 |
| GTACCCGGCG | 1.02 |
| ACTGGTACCA | 1.02 |
| GTGTTGAGAC | 0.946 |
| TTTTAGAGGC | 1.01 |

| Sequence | switch fluorescence ratio |
| --- | --- |
| ATATGAATGG | 0.993 |
| CGTCACGGGG | 1.03 |
| GTCTCCGAAG | 1.69 |
| GAGATATGTT | 0.973 |
| ATATACTGCT | 1.03 |
| TGACGTCCAT | 1.11 |
| AGTGGCGTAT | 1.02 |
| GCATAAAGTC | 0.968 |
| CATAACATGC | 1.1 |
| TACCATTTTT | 0.984 |
| CAGGTGGCTC | 1.09 |
| GTAAGAGGGT | 0.993 |
| TTGACATGCA | 1.09 |
| GAGGGTCGAG | 1.03 |
| CCACGACGCA | 2.45 |
| AGTTTTCGAA | 0.958 |
| TTTTATTTCT | 1.01 |
| TTGTAGAGTA | 1.02 |
| GTTACCTCTG | 1.03 |
| GCAGCATTTA | 1.19 |
| CCCTAGATTT | 0.984 |
| AACGAGAATG | 1 |
| TTGTGACCCG | 1.09 |

| Sequence | switch fluorescence ratio |
| --- | --- |
| TAATCGCCGG | 1.04 |
| TTACCTAGCA | 1.1 |
| ACGATGTTTT | 0.98 |
| GCGATATACG | 1.05 |
| GACGACTGTT | 1.07 |
| GAAGGTGCGG | 1.01 |
| TCTTGTATCA | 1.01 |
| GGGGCATTGA | 0.997 |
| GAGCTTAGG | 1.05 |
| TATAATAGCG | 0.999 |
| TAGTGGCACC | 1 |
| GTAAATCACT | 1.02 |
| TAGCGGGGAG | 1.02 |
| GCGCGCTCTG | 0.986 |
| GTCGACCTCA | 1.01 |
| TAAATATAAG | 1.04 |
| TTTTTCGTGC | 0.991 |
| TAAAAACTAG | 1 |
| TCCAGAATTG | 0.94 |
